Source: the supplement of paper PMC4967469

Assays:
Test in all cases: Viability of human cancer cell lines after 72 h of drug (GDSC screen)
[1] = compound: CC(C)C[C@H](NC(=O)[C@H](Cc1ccccc1)NC(=O)c1cnccn1)B(O)O [Bortezomib]; conditions: top dose 0.02 µM
Method: (§1)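 Human cancer cell lines in 384-well plates, medium with 10% serum, drug for 72 h over a 256-fold dose range (nine 2-fold or five 4-fold steps up to the top dose). Adherent lines were fixed and stained with the nucleic acid dye Syto60, suspension lines read with resazurin; signal relative to control wells, capped at 0 and 100%. One two-parameter sigmoid per drug and line, fitted in a mixed model over all curves with the slope shared within a line.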

[2] = compound: Cc1cnc(CNC(=O)c2c(=O)c3ccc(N4CCCN(C)CC4)nc3n3c2sc2ccccc23)cn1 [CX-5461]; conditions: top dose 10.24 µM; top dose inferred
Method: as §1

[3] = compound: CC(=O)O[C@H]1C(=O)[C@@]2(C)[C@H]([C@H](OC(=O)c3ccccc3)[C@]3(O)C[C@H](OC(=O)[C@H](O)[C@@H](NC(=O)c4ccccc4)c4ccccc4)C(C)=C1C3(C)C)[C@]1(OC(C)=O)CO[C@@H]1C[C@@H]2O [Paclitaxel]; conditions: top dose 0.1024 µM
Method: as §1

[4] = compound: COC1=CC(c2cc3ccccc3[nH]2)=N/C1=C\c1[nH]c(C)cc1C [Obatoclax mesylate]; conditions: top dose 16 µM
Method: as §1

[5] = compound: Cc1cccc(Nc2nc(-c3ccncc3)cs2)c1 [STF-62247]; conditions: top dose 10.24 µM; top dose inferred
Method: as §1

[6] = compound: COCC(=O)NC/C=C/c1ccc2ncnc(Nc3ccc(Oc4ccc(C)nc4)c(C)c3)c2c1 [CP724714]; conditions: top dose 10.24 µM; top dose inferred
Method: as §1

| Cell Line | AUC [1] | IC50 [1] [nM] | AUC [2] | IC50 [2] [nM] | AUC [3] | IC50 [3] [nM] | AUC [4] | IC50 [4] [nM] | AUC [5] | IC50 [5] [nM] | AUC [6] | IC50 [6] [nM] |
| --- | --- | --- | --- | --- | --- | --- | --- | --- | --- | --- | --- | --- |
| NCI-H2081 (small cell lung carcinoma, suspension) | 0.798 | 10.2 | 0.967 | > 10200 | 0.974 | > 102 | 0.481 | 887 | 0.975 | > 10200 | 0.982 | > 10200 |
| NCI-H2135 (non-small cell lung carcinoma, adherent) | 0.699 | 4.46 | 0.58 | 1050 | 0.887 | > 102 | 0.594 | 1790 | 0.987 | > 10200 | 0.989 | > 10200 |
| NCI-H2141 (small cell lung carcinoma, suspension) | 0.719 | 5.11 | 0.947 | > 10200 | 0.824 | 58.7 | 0.479 | 880 | 0.984 | > 10200 | 0.991 | > 10200 |
| NCI-H2171 (small cell lung carcinoma, suspension) | 0.946 | > 20 | 0.98 | > 10200 | 0.966 | > 102 | 0.45 | 745 | 0.988 | > 10200 | 0.979 | > 10200 |
| NCI-H2196 (small cell lung carcinoma, adherent) | 0.725 | 5.65 | 0.9 | > 10200 | 0.949 | > 102 | 0.677 | 3220 | 0.982 | > 10200 | 0.97 | > 10200 |
| NCI-SNU-1 (stomach, suspension) | 0.746 | 6.52 | 0.69 | 2230 | 0.918 | > 102 | 0.135 | 67 | 0.98 | > 10200 | 0.926 | > 10200 |
| NCI-SNU-5 (stomach, suspension) | 0.631 | 2.88 | 0.989 | > 10200 | 0.667 | 18.8 | 0.497 | 984 | 0.989 | > 10200 | 0.989 | > 10200 |
| NCI-SNU-16 (stomach, suspension) | 0.763 | 6.44 | 0.991 | > 10200 | 0.475 | 5.52 | 0.89 | 14600 | 0.991 | > 10200 | 0.979 | > 10200 |
| NEC8 (testis, adherent) | 0.561 | 1.78 | 0.278 | 169 | 0.791 | 38.6 | 0.268 | 247 | 0.951 | > 10200 | 0.991 | > 10200 |
| NKM-1 (acute myeloid leukaemia, suspension) | 0.591 | 2.24 | 0.384 | 305 | 0.764 | 38.2 | 0.156 | 84.1 | 0.968 | > 10200 | 0.967 | > 10200 |
| NMC-G1 (glioma, adherent) | 0.638 | 3.29 | 0.874 | > 10200 | 0.695 | 25.8 | 0.326 | 290 | 0.952 | > 10200 | 0.979 | > 10200 |
| NOS-1 (osteosarcoma, adherent) | 0.584 | 2.25 | 0.862 | > 10200 | 0.5 | 6.38 | 0.255 | 166 | 0.967 | > 10200 | 0.89 | > 10200 |
| NTERA-2 cl.D1 (testis, adherent) | 0.311 | 0.371 | 0.953 | > 10200 | 0.339 | 2.29 | 0.157 | 89.5 | 0.963 | > 10200 | 0.98 | > 10200 |
| NU-DUL-1 (B-cell lymphoma, suspension) | 0.541 | 1.58 | 0.805 | 4000 | 0.577 | 9.92 | 0.111 | 83.3 | 0.863 | 6150 | 0.984 | > 10200 |
| OCI-AML5 (acute myeloid leukaemia, suspension) | 0.517 | 1.38 | 0.411 | 373 | 0.624 | 13.6 | 0.469 | 832 | 0.873 | 8390 | 0.988 | > 10200 |
| OCI-LY-19 (B-cell lymphoma, suspension) | 0.517 | 1.39 | 0.204 | 93.8 | 0.379 | 3.05 | 0.086 | < 62.5 | 0.947 | > 10200 | 0.988 | > 10200 |
| OCI-M1 (acute myeloid leukaemia, suspension) | 0.347 | 0.527 | 0.573 | 963 | 0.739 | 25 | 0.44 | 714 | 0.884 | 6640 | 0.971 | > 10200 |
| OCUB-M (breast, adherent) | 0.319 | 0.422 | 0.896 | 9610 | 0.379 | 3.12 | 0.276 | 257 | 0.939 | > 10200 | 0.679 | 1870 |
| OMC-1 (cervix, adherent) | 0.691 | 4.43 | 0.962 | > 10200 | 0.869 | 102 | 0.468 | 814 | 0.984 | > 10200 | 0.974 | > 10200 |
| ONS-76 (medulloblastoma, adherent) | 0.341 | 0.435 | 0.721 | 2860 | 0.623 | 14.4 | 0.111 | < 62.5 | 0.984 | > 10200 | 0.984 | > 10200 |
| OS-RC-2 (kidney, adherent) | 0.351 | 0.399 | 0.968 | > 10200 | 0.819 | 96.1 | 0.374 | 384 | 0.978 | > 10200 | 0.967 | > 10200 |

Lines with a small IC50 respond at low doses; where the fit passes the top or lowest dose, that dose stands as a limit. The AUC spans the tested range (256-fold, ending at the top dose) of the same fit; it is 1 without any effect and falls as sensitivity rises. For part of these data: The top dose, if marked as inferred, was calculated from the reported fits.
